# According to the supplement of paper PMC11417369:
# The list shows a part of the results.
# Tested on: PF3D7_0420300 AP2 domain 1 (GST-tagged)
# Experiment: gcPBM binding intensity (ln(normalized median fluorescence intensity)); higher = stronger DNA binding
# Procedure, shortened: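 DNA-binding domains from P. falciparum, fused to GST and produced in E. coli, were put on an Agilent 4 × 180k double-stranded probe array for 1 h in 1× PBS holding 1% milk, 0.2 mg/ml BSA, 0.5% salmon testes DNA and 0.03% Triton X-100. Probes were primer-extended, 36 bp long and drawn from intergenic genomic regions, with negative controls included. After Alexa488 anti-GST antibody detection and a 488 nm scan, binding intensity was set as the highest Masliner-normalised natural-log median intensity across replicate spots of either probe orientation.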
row,Sequence,gcPBM binding intensity (ln)
1,AAATAAATACATAATACATGCATATTTAATATATAG [TGCATGCA_site135],9.4
2,GTACAATCATATACTACATGCAGTTTTTTTTATTGA [TGCATGCA_site230],9.49
3,AATTTTTTTTAATGATGTACTTTTTGAAAATAAACT [XGTACX_site4221],8.91
4,TTTTCTTTTTCTTGTACACACATAATATGGATGAAA [CACACA_site808],9.41
5,ATATATATATATATTTATTCATATATTTTTTGTCTT [TGCATGCA_negctrl_site58],9.17
6,TAAAGAAACGCATCGACGCACACTACAAAATAAAAA [CACACA_site1348],9.26
7,TTTTTATTTTTTCAGTGTACATTTAAATTATCTTAT [XGTACX_site3905],9.26
8,AACATATATATAATATGTACATAATATATATAAATG [XGTACX_site1161],9.28
9,ACATATATTTCAAAGTGTACGCACAATTTTTTTTAC [XGTACX_site6166],9.24
10,TTAGTTTCCCAAATATGTACATAAATATAAATCATA [XGTACX_site2746],8.95
11,ATTTCAACAAATATAACACACAATGGATAAGAATAA [CACACA_site1974],9.7
12,TTATTATTTTTTAACACACACATATATATTATATCT [CACACA_site4906],9.73
13,GTAAGAACACTTTTGTGGTTACTTAAAAGTGTATAT [GTGCAC_negctrl_site422],9.05
14,TGCTTATATGTTGTTACACACTAAAATAGTTAGATA [CACACA_site1277],9.39
15,AATACAGTTAGAGAAAGTACACAACTAATATACATA [XGTACX_site8814],9.37
16,AAAGAAGGATAATAATGTACAAGCAAAAAAATAAAA [XGTACX_site466],9.61
17,AATATGTGAATATAATCACACACAATACGGAAACAC [CACACA_site8875],10.1
18,AAATAATTATTTATCACACATATGTATTTATATATA [CACACA_site4589],9.31
19,CTTTTTTTAATGATAACACACATGTTGTGCATAGAC [CACACA_site3270],9.32

row,Sequence,gcPBM binding intensity (ln)
1,ATTAACACATTTAAGTGTACATATATAAATATATAT [XGTACX_site7098],9.19
2,TATACATTATTATTATGTACTTAAATATATATTATA [XGTACX_site5173],9.07
3,GGAACGTATATTTTCACACACTCTCAAAAGTACAAG [CACACA_site2301],9.41
4,GAAACAAAATTATTTTGTACATATGACTGTAGATAT [XGTACX_site972],9.21
5,ATATAACTCAAGGGCACACATATACCTTTCCTTTTT [CACACA_site4390],9.5
6,TGTGCACGTTCTGTGACACACATTTAAATGTGCTTA [CACACA_site176],9.25
7,ATATATATATATAGTTGTACTTAATTTTATATGTTA [XGTACX_site5256],9.4
8,TGTTGTATATCTCTATATAGCTATATTGTATATATA [TGCATGCA_negctrl_site323],9.4
9,TATATTATTTATTAGACACACATTATTAAAATATTT [CACACA_site4737],9.19
10,AAACTTATAAAAAGTAGTACCATAAAATAATACATA [XGTACX_site6523],9.37
11,TTTTACAAATATTACTGTACACATTTTCATATAATT [XGTACX_site17],9.49
12,CCTTGATATATATAAAGTACATATATATATATATAT [XGTACX_site4325],9.01
13,GTGAAATTATTTCCGTGTACACATAAATATATATTT [XGTACX_site3989],9.35
14,ATTTTGTTATGAAACACACACATATAAATATAAATA [CACACA_site7679],9.57
15,AATACACGCAGACACACACACAAAAAAAAAAAAAAA [CACACA_site6384],9.61
16,AATTGTGCATTATATTGTACACGTGTTGTATATATT [XGTACX_site975],9.52
17,TTGAATATGGTTACATGTACGTATCAATATTTTTTA [XGTACX_site4247],9.06
18,TATATAAAACATGGGTGTACCAACATAAATCATATA [XGTACX_site2320],9.52
19,AAAAAAAAAAATCGCTGTACTTCTAAAGGTGTGTTA [XGTACX_site843],9.31

row,Sequence,gcPBM binding intensity (ln)
1,CAAACAAACGGACACACACACACACCCAAAAATGAT [CACACA_site5363],10.1
2,AGTTTTATATAAGCTTGTACTTAATATTATTAAGTA [XGTACX_site5919],9.19
3,ACGGACTTAAAATACACACACACCAAAAAAAAAAAA [CACACA_site7304],9.86
4,TTTGATAAATTATACACACACAATATATATAAAATA [CACACA_site2023],9.82
5,AATAATATATAATAATGTACAAAAAAAAAAAAAAAA [XGTACX_site4158],9.06
6,AAGCTTTGGTGTTATGCATGCAATTAAACTATTAGT [TGCATGCA_site277],9.03
7,TTTTATTTTTTAGTAGTACACACTTTTTGTACCTTT [CACACA_site599],9.41
8,AAATAATACCAAATGTGTACTTATTTCACTAATAGA [XGTACX_site7571],9.3
9,GGAATAATAAAATTATGTACATAAGAATCATATACT [XGTACX_site6810],9.39
10,ATATATACTTATATTTGTACACAAAGGTATCTCTAG [XGTACX_site3805],9.2
11,CATATATAAATATGTATGCACTTTAACAAAATGTAT,9.13
12,ATTCCACCTTAAAACTGTACTTTCTCAATCTTTTAT [XGTACX_site796],9.43
13,ATATTTATTTATATGTGTACTTATGTTTATATAAAA [XGTACX_site4250],9.33
14,ATTATGTTATATACACGTACGTGTGCTTTATAATTA [XGTACX_site2728],9.45
15,GGAATTATAATAAATGGTACACATAAAAAAAAAAAA [XGTACX_site8343],9.27
16,ATAAAGTAGATATTTTGTACGCAGGTTGTATATATT [XGTACX_site1464],9.31
17,TACTTTACTAATATATATAGGAGAGTATACATGAAA [CACACA_negctrl_site63],9.17
18,TAATAAATAGGACACACACACATATATATATATTAT [CACACA_site4891],10.1
19,TATTTTAATTAATATACACACGCTTATATATATATA [CACACA_site7909],9.38
